In PubChem BioAssay AID540317 (National Center for Advancing Translational Sciences (NCATS), 2011):
The campaign covered roughly 390,000 compounds. About 2,200 (0.56%) were called active. The shares of active, inactive and inconclusive entries below differ from those in the screen. Calls come from the whole dose curve; as a rule, active = well fitted inhibition curve with a large enough effect; inconclusive = small, poorly fitted or top-dose-only effect; inactive = no such curve, though single readings can be large or run the other way. Potencies of inconclusive entries are doubtful fits and often do not repeat.

Molecular target: Chromobox protein homolog 1 (Homo sapiens) (UniProt P83916)
Test: HTS for Inhibitors of HP1-beta Chromodomain Interactions with Methylated Histone Tails; note: nearly all actives have a fitted effect of over 70% in size
Conditions: AlphaScreen HP1-beta / biotin-H3K9me3 peptide binding; series mostly up to 114 µM
How it was run: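 HP1-beta protein (50 nM final) preincubated 30 min at room temperature with biotinylated H3(1-18)K9me3 peptide (50 nM) in PBS pH 7.4, 0.01% Tween-20, then compound added for 30 min. AlphaScreen streptavidin donor/nickel chelate acceptor beads (10 ug/mL final), 30 min dark, luminescence read.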
Potency is the fitted concentration of half-maximal effect; tags give direction and shape of the fitted curve.

Chain of UniProt P83916 (P83916 whole entry, looked up): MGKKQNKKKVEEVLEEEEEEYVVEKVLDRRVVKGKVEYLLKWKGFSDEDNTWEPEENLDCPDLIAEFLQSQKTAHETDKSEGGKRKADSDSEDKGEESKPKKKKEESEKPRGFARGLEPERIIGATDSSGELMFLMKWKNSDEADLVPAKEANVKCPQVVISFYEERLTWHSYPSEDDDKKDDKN

SMILES	Potency
CN1CCN(C(=S)c2ccc([N+](=O)[O-])cc2)CC1	inconclusive: 50.1 µM [inhibitor, partial curve, poor fit]
CC[n+]1c(-c2ccccc2)c2cc(N)ccc2c2ccc(N)cc21	inconclusive: 70.8 µM [inhibitor, partial curve]
CC1CCC(NCCc2ccc3c(c2)OCO3)CC1 (stereo unspecified)	inconclusive: 89.1 µM [inhibitor, single point]
CSc1ccc(CN2CCN(Cc3ccccc3Cl)CC2)cc1	inconclusive: 14.1 µM [inhibitor, full curve, poor fit]
CN1C(=O)C(=Cc2ccc(SC3CCCCC3)o2)C(=O)N(C)C1=O	inconclusive: 39.8 µM [inhibitor, partial curve]
COc1cc(CNCCc2c[nH]c3ccccc23)cc(OC)c1	inconclusive: 56.2 µM [inhibitor, partial curve, poor fit]
Cc1cc(O)c2c(c1)C(=O)c1cc(O)cc(O)c1C2=O	inconclusive: 22.4 µM [inhibitor, full curve]
CCOC(=O)CC(NC(=O)C(Cc1ccc(N(CCCl)CCCl)cc1)NC(C)=O)C(=O)OCC (stereo unspecified)	inconclusive: 12.6 µM [inhibitor, full curve]
CCOc1cc2c(cc1OCC)-n1cccc1C(c1ccccc1OC)NC2 (stereo unspecified)	inconclusive: 35.5 µM [inhibitor, partial curve, poor fit]
Cc1cc(-n2c(/C=C/c3cccs3)nc3ccccc3c2=O)ccc1Br	inactive
Cn1cccc1/C=C1/C(=O)NC(=S)N(Cc2ccc(F)cc2)C1=O	active: 35.5 µM
CC1=NNC(=O)C1Br (stereo unspecified)	active: 14.1 µM
CN(C)CCN=Cc1c(O)n(-c2cccc(C(F)(F)F)c2)c(=O)[nH]c1=O	inactive
Nc1ccnn1C1CCNCC1	inconclusive: 20 µM [inhibitor, partial curve, poor fit]
COc1ccc(Br)cc1CN1CCN(C(=O)Cc2ccccc2)CC1	inconclusive: 20 µM [inhibitor, full curve, poor fit]
Cc1cccc(OCC(=O)N2CCN(Cc3ccc4c(c3)OCO4)CC2)c1	inconclusive: 15.8 µM [inhibitor, full curve, poor fit]
CN(C)c1ccc(C(O)P(=O)(OCc2ccccc2)c2ccc(N(C)C)cc2)cc1 (stereo unspecified)	inconclusive: 56.2 µM [inhibitor, partial curve, poor fit]
Nc1ccc(N2CCN(Cc3ccccc3Cl)CC2)c(Cl)c1	inconclusive: 28.2 µM [inhibitor, partial curve, poor fit]
Cc1[nH]c2ccc(OC(F)(F)F)cc2c1CCNCc1ccc(Cl)cc1	inconclusive: 56.2 µM [inhibitor, single point]
Clc1ccccc1N1CCN(Cc2ccc3c(c2)OCO3)CC1	inconclusive: 14.1 µM [inhibitor, full curve, poor fit]
Cc1cc2n(n1)C(c1cc(C(C)(C)C)c(O)cc1O)Nc1ccccc1-2 (stereo unspecified)	inactive
